For 14 cell lines, AUC and IC50 results are on record in the supplement of paper PMC4967469.

What all share (test): Viability of human cancer cell lines after 72 h of drug (GDSC screen)
Compound in one assay: C=C1C(=O)O[C@H]2[C@H]1CC/C(C)=C/CC[C@@]1(C)O[C@@H]21 [Parthenolide]
The settings on record: top dose 5 µM. As for the experimental part: (§1)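 Human cancer cell lines in 384-well plates, medium with 10% serum, drug for 72 h over a 256-fold dose range (nine 2-fold or five 4-fold steps up to the top dose). Adherent lines were fixed and stained with the nucleic acid dye Syto60, suspension lines read with resazurin; signal relative to control wells, capped at 0 and 100%. One two-parameter sigmoid per drug and line, fitted in a mixed model over all curves with the slope shared within a line.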

Compound in a further assay: COc1cc2ncn(-c3cc(OCc4ccccc4S(C)(=O)=O)c(C#N)s3)c2cc1OC [KIN001-135]
The settings on record: top dose 5 µM; top dose inferred. As for the experimental part:
as §1

Compound in a further assay: NC(=O)[C@@H](CCC(F)(F)F)N(Cc1ccc(-c2ncon2)cc1F)S(=O)(=O)c1ccc(Cl)cc1 [BMS-708163]
The note with it: top dose 5 µM; screen: GDSC drug entry 1072; top dose inferred. Here is the method:
as §1

Compound in the next assay: C=CCc1cccc(/C=N/NC(=O)CN2CCN(Cc3ccccc3)CC2)c1O [PAC-1]
The settings on record: top dose 2.56 µM. As for the experimental part:
as §1

IC50 is the fitted dose that halves viability relative to control wells, and lower means more sensitive; fits outside the tested doses are given as limits. AUC, from the same fit, is the share of area under the viability curve across the 256-fold dose range; it is 1 without any effect and falls as sensitivity rises. For some of these results: The top dose, if marked as inferred, was derived from the fitted curves, not read from the paper. For some of these results: Drugs with an entry number were screened twice under separate entries, and the two screens often disagree.

“NCI-H187 (small cell lung carcinoma, suspension)”: the AUC with Parthenolide was determined as 0.981; with KIN001-135, 0.955; with BMS-708163, 0.988; in the assay with PAC-1, 0.986. The IC50 – broadly, the point on the concentration scale where inhibition reaches its midpoint – in the assay with Parthenolide was more than 5 µM; in the assay with KIN001-135, more than 5 µM; with BMS-708163 it was more than 5 µM; in the assay with PAC-1, more than 2.56 µM.
On to “NCI-H209 (small cell lung carcinoma, suspension)”, for which the AUC with Parthenolide turned out to be 0.985; with KIN001-135 it was 0.967; with BMS-708163, 0.986; in the assay with PAC-1 it was 0.914. Moreover, the half-inhibitory concentration (IC50) was more than 5 µM with Parthenolide, more than 5 µM with KIN001-135, more than 5 µM in the assay with BMS-708163 and more than 2.56 µM with PAC-1.
As for “NCI-H211 (small cell lung carcinoma, adherent)”, the AUC stood at 0.968 with Parthenolide, 0.962 in the assay with KIN001-135, 0.979 with BMS-708163 and 0.851 in the assay with PAC-1. In addition, the IC50 is more than 5 µM in the assay with Parthenolide, more than 5 µM with KIN001-135, more than 5 µM in the assay with BMS-708163 and 1.88 µM with PAC-1.
As for “NCI-H322M (lung adenocarcinoma, suspension)”, the AUC was 0.983 with Parthenolide, 0.98 in the assay with KIN001-135, 0.984 with BMS-708163 and 0.985 with PAC-1. Further, the IC50 with Parthenolide is more than 5 µM; with KIN001-135 it was more than 5 µM; with BMS-708163 it was more than 5 µM; with PAC-1 it was more than 2.56 µM.
In the case of “NCI-H345 (small cell lung carcinoma, suspension)”, the AUC came to 0.958 with Parthenolide, 0.988 with KIN001-135, 0.99 in the assay with BMS-708163 and 0.987 with PAC-1. The IC50 was more than 5 µM with Parthenolide, more than 5 µM with KIN001-135, more than 5 µM in the assay with BMS-708163 and more than 2.56 µM with PAC-1.
In the case of “NCI-H446 (small cell lung carcinoma, semi-adherent)”, the AUC stood at 0.967 with Parthenolide, 0.954 with KIN001-135, 0.966 with BMS-708163 and 0.965 in the assay with PAC-1. The IC50 in the assay with Parthenolide was more than 5 µM; with KIN001-135, more than 5 µM; in the assay with BMS-708163, more than 5 µM; with PAC-1, more than 2.56 µM.
“NCI-H510A (small cell lung carcinoma, semi-adherent)”: the AUC with Parthenolide stood at 0.988; with KIN001-135, 0.985; with BMS-708163, 0.989; with PAC-1 it was 0.983. For the same cell line, the IC50 was more than 5 µM in the assay with Parthenolide, more than 5 µM with KIN001-135, more than 5 µM with BMS-708163 and more than 2.56 µM with PAC-1.
For “NCI-H524 (small cell lung carcinoma, suspension)”, the AUC with Parthenolide came out at 0.847; with KIN001-135 it was 0.984; with BMS-708163, 0.99; with PAC-1, 0.99. The IC50 was 3.12 µM with Parthenolide, more than 5 µM with KIN001-135, more than 5 µM in the assay with BMS-708163 and more than 2.56 µM with PAC-1.
As to “NCI-H526 (small cell lung carcinoma, suspension)”, the AUC is 0.967 with Parthenolide, 0.989 with KIN001-135, 0.989 in the assay with BMS-708163 and 0.966 with PAC-1. For the same cell line, the half-inhibitory concentration (IC50) with Parthenolide is more than 5 µM; with KIN001-135 it was more than 5 µM; with BMS-708163, more than 5 µM; with PAC-1, more than 2.56 µM.
With NCI-H716 (large intestine, suspension), the AUC with Parthenolide came to 0.98; with KIN001-135, 0.981; with BMS-708163, 0.982; with PAC-1, 0.972. The IC50 was more than 5 µM in the assay with Parthenolide, more than 5 µM with KIN001-135, more than 5 µM in the assay with BMS-708163 and more than 2.56 µM in the assay with PAC-1.
Take NCI-H720 (lung carcinoid, suspension): the AUC in the assay with Parthenolide was 0.863; with KIN001-135 it was 0.986; with BMS-708163, 0.988; in the assay with PAC-1, 0.99. Also, the IC50 is 3.75 µM in the assay with Parthenolide, more than 5 µM with KIN001-135, more than 5 µM with BMS-708163 and more than 2.56 µM with PAC-1.
On to NCI-H747 (large intestine, adherent), for which the AUC with Parthenolide is 0.953; in the assay with KIN001-135 it was 0.973; with BMS-708163, 0.981; in the assay with PAC-1, 0.885. Moreover, the 50% inhibitory concentration (IC50) with Parthenolide is more than 5 µM; with KIN001-135 it was more than 5 µM; in the assay with BMS-708163 it was more than 5 µM; in the assay with PAC-1, more than 2.56 µM.
Turning to “NCI-H847 (small cell lung carcinoma, adherent)”, the AUC stood at 0.933 in the assay with Parthenolide, 0.977 with KIN001-135, 0.991 with BMS-708163 and 0.951 with PAC-1. The IC50 in the assay with Parthenolide is more than 5 µM; with KIN001-135, more than 5 µM; in the assay with BMS-708163 it was more than 5 µM; in the assay with PAC-1, more than 2.56 µM.
“NCI-H1092 (small cell lung carcinoma, suspension)”: the AUC with Parthenolide came to 0.968; in the assay with KIN001-135, 0.97; in the assay with BMS-708163, 0.989; with PAC-1 it was 0.975. Further, the IC50 is more than 5 µM with Parthenolide, more than 5 µM with KIN001-135, more than 5 µM in the assay with BMS-708163 and more than 2.56 µM with PAC-1.
